{
  "source": "PubChem BioAssay AID1460",
  "about": "(National Center for Advancing Translational Sciences (NCATS), 2008)",
  "note": "Several values for one entry are separate records, joined by “and”; a condition that tells them apart may be missing. Equal entries are not always repeated. The whole screen tested about 270,000 compounds, of which about 5,800 (2.1%) were called active. Inconclusive means that the source gave no clear call. Such entries were picked first, then a sample of the others. Calls follow the shape of the dose curve; as a rule, active = well fitted inhibition curve with a large enough effect; inconclusive = small, poorly fitted or top-dose-only effect; inactive = flat fitted curve, though single readings scatter. A potency beside an inconclusive call is a rough fit, not a confirmed value. % is scaled to controls: 0 for no effect and ±100 for the full control effect; potency is read from the fitted curve at half-maximal effect; tags tell the direction and shape of the fitted curve.",
  "data": [
    {"target": "Microtubule-associated protein tau (Homo sapiens) (UniProt P10636)", "sequence (P10636 whole entry, looked up, the tested form may be a part)": "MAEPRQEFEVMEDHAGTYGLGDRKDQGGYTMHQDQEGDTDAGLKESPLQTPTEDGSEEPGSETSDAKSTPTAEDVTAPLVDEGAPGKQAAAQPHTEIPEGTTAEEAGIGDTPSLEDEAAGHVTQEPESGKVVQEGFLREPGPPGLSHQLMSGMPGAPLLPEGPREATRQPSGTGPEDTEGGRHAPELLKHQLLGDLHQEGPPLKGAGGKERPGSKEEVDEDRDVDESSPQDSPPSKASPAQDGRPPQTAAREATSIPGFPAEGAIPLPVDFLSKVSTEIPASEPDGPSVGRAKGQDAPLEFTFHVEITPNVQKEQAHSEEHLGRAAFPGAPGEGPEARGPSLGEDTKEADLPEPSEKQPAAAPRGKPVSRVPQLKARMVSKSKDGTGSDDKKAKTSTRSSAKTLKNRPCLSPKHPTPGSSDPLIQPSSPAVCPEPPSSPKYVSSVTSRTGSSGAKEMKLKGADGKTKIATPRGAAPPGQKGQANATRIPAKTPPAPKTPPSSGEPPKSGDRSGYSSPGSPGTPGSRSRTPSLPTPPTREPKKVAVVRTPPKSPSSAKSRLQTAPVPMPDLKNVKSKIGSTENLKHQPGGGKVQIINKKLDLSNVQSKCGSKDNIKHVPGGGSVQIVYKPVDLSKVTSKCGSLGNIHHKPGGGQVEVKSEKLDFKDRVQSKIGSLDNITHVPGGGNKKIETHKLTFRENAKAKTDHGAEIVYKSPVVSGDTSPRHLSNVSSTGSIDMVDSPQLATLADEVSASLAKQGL", "assay": "qHTS for Inhibitors of Tau Fibril Formation, Thioflavin T Binding; also: nearly all actives have a fitted effect of over 55% in size", "conditions": "recombinant tau K18 P301L (four-repeat tau fragment), heparin-induced fibrillization, ThT fluorescence; series mostly up to 57.4 µM; activity, negative = inhibition: at the top concentration", "how_it_was_run": "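Tau K18 P301L fragment (15 uM unlabeled plus 0.24 uM Alexa 594-labeled) in 100 mM sodium acetate pH 7 with compound, fibrillization induced by 20 uM heparin for 6 hr at 37 C. Thioflavin T (30 uM) added, fluorescence read after 1 hr (ex 450, em 510 nm).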", "values": [
      {"smiles": "CCc1ccc(OCC2c3cc(OC)c(OC)cc3CCN2C(=O)c2ccc(S(=O)(=O)N3CCCC3)cc2)cc1", "note": "(stereo unspecified)", "activity, negative = inhibition": "inactive: -4.75%"},
      {"smiles": "Cc1ccc(C)c(NC(=S)NNC(=O)c2csc3c2CCCC3)c1", "Potency": "inconclusive: 22.4 µM [inhibitor, partial curve]"},
      {"smiles": "CC(=O)NC(Cc1ccc(C(C)C)cc1)C(=O)NC1CCN(c2nc(C)cc(C)n2)CC1", "note": "(stereo unspecified)", "activity, negative = inhibition": "inactive: -2.68%"},
      {"smiles": "CN(Cc1ccccc1)C(=O)c1oc(=O)c2ccccc2c1-c1ccccc1", "activity, negative = inhibition": "inactive: -12.4%"},
      {"smiles": "S=C(Nc1ccccc1)Nc1ccccc1C#Cc1ccccc1", "Potency": "inconclusive: 28.2 µM [inhibitor, single point]"},
      {"smiles": "O=C(O)CN(CC(=O)O)Cc1cc2c(-c3ccccc3C(=O)O)c3cc(CN(CC(=O)O)CC(=O)O)c(=O)cc-3oc2cc1O", "Potency": "inconclusive: 2.51 µM [activator, full curve]"},
      {"smiles": "CCc1ccccc1N1C(=O)c2cccc3c(N4CCOCC4)c([N+](=O)[O-])cc(c23)C1=O", "Potency": "inconclusive: 12.6 µM [inhibitor, partial curve]"},
      {"smiles": "CC1CCc2c(nc3ncnn3c2NCCc2ccccc2F)C1", "note": "(stereo unspecified)", "Potency": "inconclusive: 8.91 µM [inhibitor, partial curve]"},
      {"smiles": "CCC(=O)NC(=S)Nc1ccc(NC(=O)c2ccco2)c(OC)c1", "activity, negative = inhibition": "inactive: -7.31%"},
      {"smiles": "CCOc1ccc(-n2c(C)cc(/C=C3/C(=N)N4C(=NC3=O)SN=C4S(C)(=O)=O)c2C)cc1", "Potency": "inconclusive: 25.1 µM [inhibitor, partial curve]"},
      {"smiles": "Nc1c(C(=O)Nc2ccccc2Br)sc2nc(-c3cccs3)ccc12", "Potency": "inconclusive: 1.78 µM [inhibitor, full curve]"},
      {"smiles": "O=C(CSc1nc2c([nH]c3ccccc32)c(=O)n1-c1ccccc1)Nc1ccc2c(c1)OCO2", "activity, negative = inhibition": "inactive: 0.86%"},
      {"smiles": "COc1ccc(-c2nc(Cn3c(=O)cc(C)c4c(C)nn(-c5ccccc5)c43)c(C)o2)cc1OC", "Potency": "inconclusive: 15.8 µM [inhibitor, single point]"},
      {"smiles": "COc1ccc(N2CCN(C(CNS(=O)(=O)c3ccc(OC)c(C)c3)c3ccco3)CC2)cc1", "note": "(stereo unspecified)", "Potency": "inconclusive: 15.8 µM [inhibitor, partial curve, poor fit]"},
      {"smiles": "Cc1noc2ncnc(N3CCN(c4cccc(C(F)(F)F)c4)CC3)c12", "activity, negative = inhibition": "inactive: -12.5%"},
      {"smiles": "O=C(Nc1cc(-c2ccccc2)[nH]n1)c1ccc(Cl)cc1", "Potency": "inconclusive: 39.8 µM [activator, single point] and inconclusive: 20 µM [activator, partial curve]"},
      {"smiles": "COC(=O)c1ccc(C(=O)OC)c(NC(=S)N2CC(C)CC(C)C2)c1", "note": "(stereo unspecified)", "activity, negative = inhibition": "inactive: -13.9%"},
      {"smiles": "C#CCOC(=O)CCCNc1ccc([N+](=O)[O-])cc1[N+](=O)[O-]", "Potency": "inconclusive: 20 µM [inhibitor, partial curve]"},
      {"smiles": "CCCNc1c(F)c(F)c2c(C)c3ccccc3nc2c1F", "Potency": "active: 14.1 µM"},
      {"smiles": "COC(=O)c1ccc2c(=O)n(CCCCCC(=O)NCCc3ccccc3)c(=O)[nH]c2c1", "activity, negative = inhibition": "inactive: 4.04%"},
      {"smiles": "CC(=O)N1CCN(c2ccc([N+](=O)[O-])c(NCC3CCCO3)c2)CC1", "note": "(stereo unspecified)", "Potency": "active: 14.1 µM"},
      {"smiles": "O=c1cc(-c2ccc(C3CCCCC3)cc2)[nH][nH]1", "Potency": "inconclusive: 12.6 µM [inhibitor, partial curve]"},
      {"smiles": "CCOc1ccc(NC(=O)C2CC(=O)N3CCCN=C3S2)cc1", "note": "(stereo unspecified)", "Potency": "inconclusive: 15.8 µM [inhibitor, partial curve]"},
      {"smiles": "Cc1cc(NC(=O)N2CCC(CN3CCCCCC3)CC2)ccc1Br", "Potency": "inconclusive: 39.8 µM [inhibitor, single point]"},
      {"smiles": "O=C1/C(=C\\c2ccccn2)SC(=S)N1Nc1ncc(C(F)(F)F)cc1Cl", "Potency": "active: 28.2 µM"},
      {"smiles": "CC1=NN(c2ccc([N+](=O)[O-])cc2)C(=O)/C1=C\\N(C)C", "Potency": "active: 12.6 µM"},
      {"smiles": "O=C1Nc2ccc([N+](=O)[O-])cc2OC1CCN1CCN(c2ccccc2)CC1", "note": "(stereo unspecified)", "Potency": "active: 10 µM"},
      {"smiles": "COc1ccc(F)cc1CN1CCN(c2cc(C)nc3c4c(C)cc(C)nc4nn23)CC1", "Potency": "inconclusive: 17.8 µM [inhibitor, single point]"},
      {"smiles": "CSc1ccc(CNc2ccc(C)c(C)c2)cc1", "Potency": "inconclusive: 17.8 µM [inhibitor, partial curve]"},
      {"smiles": "Cc1cc(C)c(NC(=O)Cn2c(=O)oc3cc(S(=O)(=O)N4CCCCCC4)ccc32)c(C)c1", "activity, negative = inhibition": "inactive: 9.83%"},
      {"smiles": "COc1ccccc1CCNC(=O)c1cccn1-c1nnc(N2CCCC2)s1", "activity, negative = inhibition": "inactive: -4.98%"},
      {"smiles": "Cc1cc(C(=O)COC(=O)C2=NNC(=O)CC2)c(C)n1CCc1ccccc1", "Potency": "inconclusive: 44.7 µM [inhibitor, single point]"},
      {"smiles": "Cc1cc(C)nc(N(C#N)Cc2ccccc2Cl)n1", "activity, negative = inhibition": "inactive: -1.78%"},
      {"smiles": "COc1cccc(N2CC(C(=O)Nc3nnc(SCC(=O)Nc4cc(C)on4)s3)CC2=O)c1", "note": "(stereo unspecified)", "activity, negative = inhibition": "inactive: 1.27%"},
      {"smiles": "COc1ccc(CCNC(=O)CCc2cn(Cc3ccccc3Cl)c3ccccc23)c(OC)c1", "activity, negative = inhibition": "inactive: -10.7%"},
      {"smiles": "CCOC(=O)C1(CC2CCCCO2)CCN(S(=O)(=O)c2cc(C)cs2)CC1", "note": "(stereo unspecified)", "Potency": "inconclusive: 35.5 µM [inhibitor, single point]"},
      {"smiles": "O=C(COc1ccc(S(=O)(=O)N2CCc3ccccc32)cc1Cl)NCc1ccccn1", "Potency": "inconclusive: 17.8 µM [inhibitor, partial curve]"},
      {"smiles": "CC(C)Oc1ccc(CNCC2(O)CCOC(C)(C)C2)cc1", "note": "(stereo unspecified)", "activity, negative = inhibition": "inactive: -1.11%"},
      {"smiles": "Fc1ccc(CN2CCc3nc(N4CCN(c5ccccc5F)CC4)ncc3C2)c(F)c1", "activity, negative = inhibition": "inactive: -1.66%"},
      {"smiles": "Cc1cc(C)c(COc2ccc(/C=N/n3c(C)n[nH]c3=S)cc2)c(C)c1", "Potency": "inconclusive: 31.6 µM [inhibitor, partial curve]"},
      {"smiles": "CCCn1c2ccccc2c2cnn(CC(=O)NCCCN3CCCCC3CC)c(=O)c21", "note": "(stereo unspecified)", "activity, negative = inhibition": "inactive: -11.7%"},
      {"smiles": "CN(C)c1ccc(C(=O)OCC(=O)c2cccs2)cc1", "Potency": "inconclusive: 12.6 µM [inhibitor, partial curve]"},
      {"smiles": "CCN1CCN(Cc2c(O)ccc3oc(C)c(C(=O)Nc4cccc(Cl)c4C)c23)CC1", "activity, negative = inhibition": "inactive: -4%"},
      {"smiles": "COc1ccc(/C=N/NC(=O)c2ccc3c(c2)OCCO3)cc1[N+](=O)[O-]", "Potency": "inconclusive: 2.51 µM [inhibitor, full curve]"},
      {"smiles": "C=CCc1cc(C=O)cc(OC)c1OCc1c(Cl)cccc1Cl", "Potency": "inconclusive: 22.4 µM [inhibitor, single point]"},
      {"smiles": "FC(F)(F)c1cccc(N2CCN(c3ncnc4c3nc3n4CCCC3)CC2)c1", "activity, negative = inhibition": "inactive: -8.5%"},
      {"smiles": "COc1ccc(NC(=O)c2cc3c(-c4ccccc4F)nn(C)c3s2)c(OC)c1", "Potency": "inconclusive: 6.31 µM [inhibitor, full curve]"},
      {"smiles": "COc1ccc2ccccc2c1C1CC(=O)N2CN(Cc3ccco3)CSC2=C1C#N", "note": "(stereo unspecified)", "Potency": "inconclusive: 28.2 µM [inhibitor, partial curve]"},
      {"smiles": "O=C(NCCSc1c[nH]c2ccccc12)c1ccc(Br)o1", "Potency": "inconclusive: 12.6 µM [inhibitor, partial curve, poor fit]"},
      {"smiles": "C=CCN(C(=O)CSc1nc2[nH]ncc2c(=O)n1-c1ccccc1OC)c1ccccc1", "Potency": "inconclusive: 12.6 µM [inhibitor, partial curve]"},
      {"smiles": "NNC(=O)CNc1cccc(Br)c1", "Potency": "inconclusive: 44.7 µM [inhibitor, single point]"},
      {"smiles": "CCOC(=O)N1CCC(N2Cc3cccc(C(=O)Nc4ccc(OC)c(OC)c4)c3C2=O)CC1", "Potency": "inconclusive: 20 µM [inhibitor, single point]"},
      {"smiles": "Cc1ccc(-c2nn(-c3cccc(F)c3)cc2CNCc2cccnc2)o1", "activity, negative = inhibition": "inactive: -17.7%"},
      {"smiles": "Cc1cc(OC(=O)c2ccc(Cl)cc2)cc(=O)n1C", "Potency": "inconclusive: 22.4 µM [inhibitor, partial curve]"},
      {"smiles": "Cc1ccc(-n2cc(CNCCn3nc(C)cc3C)c(-c3ccc(F)cc3)n2)cc1", "Potency": "inconclusive: 31.6 µM [inhibitor, single point]"},
      {"smiles": "N/N=C/C(=N\\Nc1ccc(Cl)cc1)C(=O)c1ccncc1", "Potency": "inconclusive: 3.16 µM [inhibitor, full curve]"},
      {"smiles": "CCOC(=O)c1c(C)[nH]c2c1cc(O)c1ccccc12", "Potency": "active: 15.8 µM"},
      {"smiles": "COc1ccccc1-c1nnc2sc(COc3ccc(Cl)cc3)nn12", "Potency": "inconclusive: 28.2 µM [inhibitor, single point]"},
      {"smiles": "CC(=NCC1CCNCC1)C1=C(O)CC(C)(C)CC1=O", "Potency": "inconclusive: 14.1 µM [inhibitor, partial curve]"},
      {"smiles": "COc1cc(OC)c2c(-c3ccccc3)cc(=O)oc2c1C(CC(=O)N1CCOCC1)c1ccc(N(C)C)cc1", "note": "(stereo unspecified)", "Potency": "inconclusive: 44.7 µM [inhibitor, single point]"},
      {"smiles": "CC(=O)Nc1cccc(NC(=O)CSc2ccc(-c3sc(-c4ccccc4)nc3C)nn2)c1", "Potency": "inconclusive: 1.26 µM [inhibitor, partial curve]"},
      {"smiles": "Cc1cccc(NC(=S)N2CCCCCC2)c1", "activity, negative = inhibition": "inactive: 3.8%"},
      {"smiles": "CCCCc1nc2ccc(S(=O)(=O)O)cc2[nH]1", "activity, negative = inhibition": "inactive: 6.81%"},
      {"smiles": "Cn1c(=NC(=O)c2cnccn2)sc2ccccc21", "Potency": "inconclusive: 20 µM [inhibitor, single point]"},
      {"smiles": "O=C(CCCOc1ccc(Cl)cc1Cl)N/N=C/c1ccco1", "Potency": "inconclusive: 15.8 µM [inhibitor, partial curve]"},
      {"smiles": "COc1ccc(C(C)=O)cc1COC(=O)c1ccc2c(c1)OCO2", "activity, negative = inhibition": "inactive: -6.41%"},
      {"smiles": "N#Cc1ccccc1Cn1cc(/C=N/Nc2ccc([N+](=O)[O-])cn2)c2ccccc21", "Potency": "inconclusive: 3.55 µM [inhibitor, partial curve]"},
      {"smiles": "CCOC(=O)c1sc(NC(=O)CSc2ccccn2)c(C#N)c1C", "activity, negative = inhibition": "inactive: -3.05%"},
      {"smiles": "CCOC(=O)c1cnc(SCc2nc(N)nc(Nc3ccccc3)n2)nc1N", "activity, negative = inhibition": "inactive: -7.02%"},
      {"smiles": "CC(C)CSC1=NSC2=NC(=O)/C(=C\\c3coc4ccccc4c3=O)C(=N)N12", "Potency": "active: 28.2 µM"},
      {"smiles": "COC(=O)c1ccc(-c2ccc([C@H]3[C@H]4C=CC[C@@H](C)[C@@H]4C(=O)N3Cc3ccccc3)c(F)c2)cc1", "Potency": "inconclusive: 3.16 µM [inhibitor, partial curve, poor fit]"}
    ]}
  ]
}
